# Some of the results follow.
# B1: rAAL-2 (Agrocybe aegerita) (protein)
# chain: MTSNVITQDLPIPVASRGFADIVGFGLDGVVIGRNAVNLQPFLAVKNFAQNAGGWLTTKHVRLIADTTGTGKGDIVGFGNAGVYVSVNNGKNTFADPPKMVIANFGYDAGGWRVEKHLRYLADIRKIGRADIIGFGEKGVLVSRNNGGLNFGPATLVLKDFGYDAGGWRLDRHLRFLADVTGNGHLDIVGFGDKHVFISRNNGDGTFAPAKSVIDNFCIDAGGWKIGDHPRFVADLTGDGTADIIGCGKAGCWVALNNGGGVFGQVKLVINDFGTDKGWQAAKHPRFIADLTGNGRGDVVGFGNAGVYVALNNGDGTFQSAKLVLKDFGVQQGWTVSKHRRFVVDLTGDGCADIIGFGEKETLVSYNDGKGNFGPVKALTNDFSFSGGKWAPETTVCWMANLDSSRH
# What was measured:
# Test in all cases: glycan array binding signal (z-score within array); higher = stronger binding
# Settings in all cases: glycan notation: IUPAC condensed, linker removed
# [1] = target: Fuc(a1-2)[Gal(a1-3)]Gal(b1-4)GlcNAc(b1-3)[Fuc(a1-2)[Gal(a1-3)]Gal(b1-4)GlcNAc(b1-6)]GalNAc
# Procedure, shortened: (§1)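 The binding signal is a Z-score computed within each array and averaged over linkers. Arrays of the same protein sequence at different concentrations or buffers were also averaged together. Data originate from 3228 arrays in the Consortium for Functional Glycomics database, kept only where the protein sequence was available.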
# [2] = target: Fuc(a1-2)[Gal(a1-3)]Gal(b1-4)GlcNAc(b1-6)GalNAc
# Procedure, shortened: as §1
# [3] = target: Fuc(a1-2)[Gal(a1-3)]Gal(b1-4)[Fuc(a1-3)]Glc
# Procedure, shortened: as §1
# [4] = target: Fuc(a1-2)[Gal(a1-3)]Gal(b1-4)[Fuc(a1-3)]GlcNAc
# Procedure, shortened: as §1
# [5] = target: Fuc(a1-2)[Gal(a1-3)]Gal(b1-4)[Fuc(a1-3)]GlcNAc(b1-3)GalNAc
# Procedure, shortened: as §1
# [6] = target: Fuc(a1-2)[Gal(a1-4)]Gal(b1-4)GlcNAc
# Procedure, shortened: as §1
# [7] = target: Fuc(a1-2)[GalNAc(a1-3)]Gal
# Procedure, shortened: as §1
# [8] = target: Fuc(a1-2)[GalNAc(a1-3)]Gal(b1-3)GalNAc(a1-3)[Fuc(a1-2)]Gal(b1-4)GlcNAc
# Procedure, shortened: as §1
# [9] = target: Fuc(a1-2)[GalNAc(a1-3)]Gal(b1-3)GalNAc(b1-3)Gal(a1-4)Gal(b1-4)Glc
# Procedure, shortened: as §1
# [10] = target: Fuc(a1-2)[GalNAc(a1-3)]Gal(b1-3)GlcNAc
# Procedure, shortened: as §1
# [11] = target: Fuc(a1-2)[GalNAc(a1-3)]Gal(b1-3)GlcNAc(b1-2)Man(a1-3)[Fuc(a1-2)[GalNAc(a1-3)]Gal(b1-3)GlcNAc(b1-2)Man(a1-6)]Man(b1-4)GlcNAc(b1-4)GlcNAc
# Procedure, shortened: as §1
# [12] = target: Fuc(a1-2)[GalNAc(a1-3)]Gal(b1-3)GlcNAc(b1-2)Man(a1-3)[Fuc(a1-2)[GalNAc(a1-3)]Gal(b1-3)GlcNAc(b1-2)Man(a1-6)]Man(b1-4)GlcNAc(b1-4)[Fuc(a1-6)]GlcNAc
# Procedure, shortened: as §1
# [13] = target: Fuc(a1-2)[GalNAc(a1-3)]Gal(b1-3)GlcNAc(b1-3)GalNAc
# Procedure, shortened: as §1
# [14] = target: Fuc(a1-2)[GalNAc(a1-3)]Gal(b1-3)GlcNAc(b1-6)GalNAc
# Procedure, shortened: as §1
# [15] = target: Fuc(a1-2)[GalNAc(a1-3)]Gal(b1-4)Glc
# Procedure, shortened: as §1
# [16] = target: Fuc(a1-2)[GalNAc(a1-3)]Gal(b1-4)GlcNAc
# Procedure, shortened: as §1
# [17] = target: Fuc(a1-2)[GalNAc(a1-3)]Gal(b1-4)GlcNAc(b1-2)Man
# Procedure, shortened: as §1
# [18] = target: Fuc(a1-2)[GalNAc(a1-3)]Gal(b1-4)GlcNAc(b1-2)Man(a1-3)[Fuc(a1-2)[GalNAc(a1-3)]Gal(b1-4)GlcNAc(b1-2)Man(a1-6)]Man(b1-4)GlcNAc(b1-4)GlcNAc
# Procedure, shortened: as §1
# [19] = target: Fuc(a1-2)[GalNAc(a1-3)]Gal(b1-4)GlcNAc(b1-2)Man(a1-3)[Fuc(a1-2)[GalNAc(a1-3)]Gal(b1-4)GlcNAc(b1-2)Man(a1-6)]Man(b1-4)GlcNAc(b1-4)[Fuc(a1-6)]GlcNAc
# Procedure, shortened: as §1
# [20] = target: Fuc(a1-2)[GalNAc(a1-3)]Gal(b1-4)GlcNAc(b1-3)Gal(b1-4)GlcNAc
# Procedure, shortened: as §1
# [21] = target: Fuc(a1-2)[GalNAc(a1-3)]Gal(b1-4)GlcNAc(b1-3)Gal(b1-4)GlcNAc(b1-3)Gal(b1-4)GlcNAc
# Procedure, shortened: as §1
# [22] = target: Fuc(a1-2)[GalNAc(a1-3)]Gal(b1-4)GlcNAc(b1-3)GalNAc
# Procedure, shortened: as §1
# [23] = target: Fuc(a1-2)[GalNAc(a1-3)]Gal(b1-4)GlcNAc(b1-3)[Fuc(a1-2)[GalNAc(a1-3)]Gal(b1-4)GlcNAc(b1-6)]GalNAc
# Procedure, shortened: as §1
# [24] = target: Fuc(a1-2)[GalNAc(a1-3)]Gal(b1-4)GlcNAc(b1-6)GalNAc
# Procedure, shortened: as §1
# [25] = target: Fuc(a1-2)[GalNAc(a1-3)]Gal(b1-4)[Fuc(a1-3)]GlcNAc
# Procedure, shortened: as §1
# [26] = target: Fuc(a1-2)[GalNAc(a1-3)]Gal(b1-4)[Fuc(a1-3)]GlcNAc(b1-3)GalNAc
# Procedure, shortened: as §1
# [27] = target: Fuc(a1-2)[GalNAc(a1-4)]Gal(b1-4)GlcNAc
# Procedure, shortened: as §1
# [28] = target: Fuc(a1-2)[GalNAc(b1-3)]Gal
# Procedure, shortened: as §1
# Fuc(a1-3)GlcNAc = target: Fuc(a1-3)GlcNAc
# Procedure, shortened: as §1
# [29] = target: Fuc(a1-3)[Gal(b1-4)]Glc6S
# Procedure, shortened: as §1
# [30] = target: Fuc(a1-3)[Gal(b1-4)]GlcNAc
# Procedure, shortened: as §1
# [31] = target: Fuc(a1-3)[Gal(b1-4)]GlcNAc(b1-2)Man
# Procedure, shortened: as §1
# [32] = target: Fuc(a1-3)[Gal(b1-4)]GlcNAc(b1-2)Man(a1-3)[Fuc(a1-3)[Gal(b1-4)]GlcNAc(b1-2)Man(a1-6)]Man(b1-4)GlcNAc(b1-4)GlcNAc
# Procedure, shortened: as §1
# [33] = target: Fuc(a1-3)[Gal(b1-4)]GlcNAc(b1-2)Man(a1-3)[Fuc(a1-3)[Gal(b1-4)]GlcNAc(b1-2)Man(a1-6)]Man(b1-4)GlcNAc(b1-4)[Fuc(a1-6)]GlcNAc
# Procedure, shortened: as §1
# [34] = target: Fuc(a1-3)[Gal(b1-4)]GlcNAc(b1-3)Gal(b1-3)[Fuc(a1-4)]GlcNAc
# Procedure, shortened: as §1
# [35] = target: Fuc(a1-3)[Gal(b1-4)]GlcNAc(b1-3)Gal(b1-4)[Fuc(a1-3)]GlcNAc
# Procedure, shortened: as §1
# [36] = target: Fuc(a1-3)[Gal(b1-4)]GlcNAc(b1-3)Gal(b1-4)[Fuc(a1-3)]GlcNAc(b1-3)Gal(b1-4)[Fuc(a1-3)]GlcNAc
# Procedure, shortened: as §1
# [37] = target: Fuc(a1-3)[Gal(b1-4)]GlcNAc(b1-3)GalNAc
# Procedure, shortened: as §1
binder,measurement,setting,value
B1,glycan array binding signal (z-score),[1],-0.235
same,glycan array binding signal (z-score),[2],-0.195
same,glycan array binding signal (z-score),[3],-0.258
same,glycan array binding signal (z-score),[4],-0.196
same,glycan array binding signal (z-score),[5],-0.123
same,glycan array binding signal (z-score),[6],0.114
same,glycan array binding signal (z-score),[7],-0.342
same,glycan array binding signal (z-score),[8],-0.044
same,glycan array binding signal (z-score),[9],-0.402
same,glycan array binding signal (z-score),[10],0.139
same,glycan array binding signal (z-score),[11],0.114
same,glycan array binding signal (z-score),[12],0.174
same,glycan array binding signal (z-score),[13],0.117
same,glycan array binding signal (z-score),[14],-0.291
same,glycan array binding signal (z-score),[15],-0.025
same,glycan array binding signal (z-score),[16],0.075
same,glycan array binding signal (z-score),[17],-0.523
same,glycan array binding signal (z-score),[18],0.258
same,glycan array binding signal (z-score),[19],0.235
same,glycan array binding signal (z-score),[20],0.096
same,glycan array binding signal (z-score),[21],0.353
same,glycan array binding signal (z-score),[22],-0.149
same,glycan array binding signal (z-score),[23],-0.309
same,glycan array binding signal (z-score),[24],0.115
same,glycan array binding signal (z-score),[25],-0.247
same,glycan array binding signal (z-score),[26],-0.253
same,glycan array binding signal (z-score),[27],-0.368
same,glycan array binding signal (z-score),[28],-0.291
same,glycan array binding signal (z-score),Fuc(a1-3)GlcNAc,-0.182
same,glycan array binding signal (z-score),[29],-0.135
same,glycan array binding signal (z-score),[30],-0.29
same,glycan array binding signal (z-score),[31],-0.014
same,glycan array binding signal (z-score),[32],-0.175
same,glycan array binding signal (z-score),[33],-0.278
same,glycan array binding signal (z-score),[34],-0.401
same,glycan array binding signal (z-score),[35],0.05
same,glycan array binding signal (z-score),[36],-0.445
same,glycan array binding signal (z-score),[37],-0.253
